Article PMC4336329 (PLoS ONE, 2015)
Screen size: about 310,000 compounds; about 14,000 (4.5%) showed an effect of 50% or more. Effects have a minus sign here. This is one part of the list.

Target: human ether-à-go-go-related gene (hERG) potassium channel (human, UniProt Q12809)
Assay: primary screen, population patch clamp on CHO cells stably expressing hERG
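Also: peak tail current of the secondary pulse compared with the same well before compound.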

human ether-à-go-go-related gene (hERG) potassium channel, sequence (Q12809 whole entry, looked up): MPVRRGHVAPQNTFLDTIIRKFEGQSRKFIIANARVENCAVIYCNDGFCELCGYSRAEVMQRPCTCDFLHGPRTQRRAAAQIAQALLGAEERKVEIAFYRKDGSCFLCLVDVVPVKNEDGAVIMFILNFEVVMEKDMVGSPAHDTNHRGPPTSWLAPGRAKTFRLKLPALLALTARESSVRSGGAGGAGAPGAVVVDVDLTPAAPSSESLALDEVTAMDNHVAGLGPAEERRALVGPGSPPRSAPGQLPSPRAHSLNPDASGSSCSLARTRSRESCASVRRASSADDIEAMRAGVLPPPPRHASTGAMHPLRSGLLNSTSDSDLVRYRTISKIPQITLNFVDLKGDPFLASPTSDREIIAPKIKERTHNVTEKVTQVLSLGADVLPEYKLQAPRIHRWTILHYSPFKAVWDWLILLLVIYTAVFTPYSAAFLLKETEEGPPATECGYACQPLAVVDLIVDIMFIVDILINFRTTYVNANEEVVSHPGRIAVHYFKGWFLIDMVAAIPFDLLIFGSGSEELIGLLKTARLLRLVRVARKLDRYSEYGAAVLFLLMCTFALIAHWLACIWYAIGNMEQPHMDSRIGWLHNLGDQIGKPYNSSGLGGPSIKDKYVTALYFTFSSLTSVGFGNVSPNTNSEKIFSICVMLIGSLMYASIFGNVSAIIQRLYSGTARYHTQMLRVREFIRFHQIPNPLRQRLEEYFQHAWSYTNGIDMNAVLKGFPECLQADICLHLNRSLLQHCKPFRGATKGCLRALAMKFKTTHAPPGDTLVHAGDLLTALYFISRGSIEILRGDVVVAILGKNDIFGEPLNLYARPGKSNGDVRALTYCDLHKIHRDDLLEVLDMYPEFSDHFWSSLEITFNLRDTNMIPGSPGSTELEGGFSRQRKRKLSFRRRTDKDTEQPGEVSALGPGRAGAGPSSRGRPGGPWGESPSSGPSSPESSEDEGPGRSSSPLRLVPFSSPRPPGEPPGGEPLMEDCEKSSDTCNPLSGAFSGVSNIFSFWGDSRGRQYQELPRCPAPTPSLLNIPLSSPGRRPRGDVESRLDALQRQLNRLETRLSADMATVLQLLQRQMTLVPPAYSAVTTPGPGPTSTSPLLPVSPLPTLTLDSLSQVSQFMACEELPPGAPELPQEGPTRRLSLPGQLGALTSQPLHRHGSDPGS

| Structure (SMILES) | hERG current change (%, negative = inhibition) at 10uM [%] |
| --- | --- |
| CN(C(=O)COc1ccc(Oc2ccccc2)cc1)C1CCS(=O)(=O)C1 (centres unmarked) | -8.76 |
| COc1cc2cc(Oc3ccc4ccc(=O)oc4c3)c(=O)oc2cc1O | 16.5 |
| CC1CCCCC12NC(=O)N(CC(=O)c1ccc[nH]1)C2=O (centres unmarked) | 0.351 |
| Cn1cnnc1SC1CCCCC1NS(=O)(=O)c1ccccc1 (centres unmarked) | -0.847 |
| CCn1nc(C)c(CNC(=O)c2cc(COc3ccccc3SC)on2)c1C | 15.9 |
| COC(=O)c1sccc1NC(=O)Nc1ccccc1C | 9.22 |
| COCn1c(-c2ccccc2)nc2ccccc21 | -5.43 |
| CC(Oc1ccc2cc(-c3ccccc3)c(=O)oc2c1)C(=O)NCC1CCC(C(=O)O)CC1 (centres unmarked) | 15.7 |
| Brc1cccc(CNc2nc3ccccc3n2CCN2CCCCC2)c1 | -67.8 |
| CCc1nnc(NC(=O)C2CC(=O)N(Cc3ccccc3)C2)s1 (centres unmarked) | 13.4 |
| CC(C)=C(NC(=O)c1ccccc1)C(=O)Nc1cccc(C(=O)O)c1 | 12.1 |
| Cc1nc(N)sc1-c1csc(Nc2cccc(O)c2)n1 | -1.08 |
| CC(=O)N1CCN(c2nc(N)c(C#N)c(CC#N)c2C#N)CC1 | -7.08 |
| COC(=O)C1=C(C)N(C)C(=O)NC1c1cccc2ccccc12 (centres unmarked) | 9.62 |
| O=C(CSc1nc2ccccc2[nH]1)Nc1ccc2[nH]c(=O)[nH]c2c1 | 7.16 |
| CCOC(=O)/C(C#N)=C/c1cn(CCOc2ccc(OC)cc2)c2ccccc12 | 2.19 |
| COc1ccc(NC(=O)c2ccc(NCCN3C(=O)CCC3=O)c([N+](=O)[O-])c2)cc1 | 3.51 |
| C=CCNC(=O)C1CC(=O)N(c2ccc(OCC(=O)NCc3ccccc3)cc2)C1 (centres unmarked) | -2.6 |
| Cn1c(C(=O)NCCCN2CCN(c3ccccc3F)CC2)cc2c(=O)[nH]c3ccccc3c21 | -10.9 |
| O=C(O)Cc1cc(C(=O)Nc2ccc(Br)cc2)sc1-c1ccccc1 | 8.22 |
| COc1ccccc1NC(=O)CC(c1ccc(OC(C)C)cc1)c1ccccc1OC (centres unmarked) | -1.62 |
| COc1ccc(S(=O)(=O)Nc2ccccc2SC)cc1C | -26.6 |

| Structure (SMILES) | hERG current change (%, negative = inhibition) at 10uM [%] |
| --- | --- |
| CN(c1ccccc1)S(=O)(=O)c1nnc(NC(=O)COc2ccccc2)s1 | 24.5 |
| COCCn1c(SCC(=O)c2ccc3c(c2)OCCO3)nnc1C(C)C | 1.5 |
| CCO.N#CC1=C(N)Oc2c(oc(CO)cc2=O)C1c1ccccc1[N+](=O)[O-] (centres unmarked) | -1.44 |
| O=[N+]([O-])c1ccc(SCc2ccncc2)nc1 | 30.3 |
| CC(C(=O)Nc1cc(C(F)(F)F)ccc1N1CCOCC1)N1C(=O)C2CC=CCC2C1=O (centres unmarked) | -13.5 |
| CC(C)c1cc(C(=O)OCC(=O)NC(=O)NCc2ccco2)c(O)c(C(C)C)c1 | 22.5 |
| Cc1nccn1CCCNC(=O)CC1C(=O)NCCN1Cc1ccccc1C(F)(F)F (centres unmarked) | 9.64 |
| Cc1cc(C)nc(SCC(=O)NNC(=O)c2cccs2)n1 | -7.19 |
| CCNC(=S)NCc1ccco1 | 2.01 |
| CCOC(=O)CSC1=C(C#N)C(c2ccccc2C)C2=C(CCCC2=O)N1 (centres unmarked) | -1.96 |
| Cc1cc(C)c(NS(=O)(=O)c2ccc(Cl)c(C(=O)O)c2)c(C)c1 | -6.04 |
| CCOC(=O)C1(CCCc2ccccc2)CCN(C2CCCC2)CC1 | -69.7 |
| O=C(CN1CCC(NC(=O)Cc2ccccc2)CC1)Nc1ccccc1Br | -29.2 |
| COc1ccc(CNC(=O)COc2ccc(OC)cc2)cc1 | 13.8 |
| O=C1NC(=O)C(=Cc2ccc(-c3ccccc3[N+](=O)[O-])o2)C(=O)N1 | 1.79 |
| CNC[C@H](CC1CCCCC1)NC[C@H](Cc1ccccc1)NCCC12CC3CC(CC(C3)C1)C2 | 7.27 |
| Cc1cc(C(=O)N/N=C/c2cccc(OC(=O)c3cccc(Br)c3)c2)n[nH]1 | 11.7 |
| Cl.OCCN1CCN(CC(O)COCCOc2ccc(Br)cc2)CC1 (centres unmarked) | -20.2 |
| OCCC1CN(Cc2ccc3c(c2)CCO3)CCN1C1CCCC1 (centres unmarked) | -12.7 |
| Fc1ccc(-c2csc(Nc3ccccn3)n2)cc1 | 13.8 |
| Cc1ccc(C(=O)N2CCN(S(C)(=O)=O)C2)cc1 | -5.49 |
| Cc1ccc(S(=O)(=O)NCCC(=O)Nc2cc(S(=O)(=O)N(C)C)ccc2C)cc1C | -7.95 |
